For two molecules, binding results are on record in publication PMC7515635.

Sequences of proteins named here, by UniProt entry; tags and fusion partners are left off.
UniProt Q9FG23: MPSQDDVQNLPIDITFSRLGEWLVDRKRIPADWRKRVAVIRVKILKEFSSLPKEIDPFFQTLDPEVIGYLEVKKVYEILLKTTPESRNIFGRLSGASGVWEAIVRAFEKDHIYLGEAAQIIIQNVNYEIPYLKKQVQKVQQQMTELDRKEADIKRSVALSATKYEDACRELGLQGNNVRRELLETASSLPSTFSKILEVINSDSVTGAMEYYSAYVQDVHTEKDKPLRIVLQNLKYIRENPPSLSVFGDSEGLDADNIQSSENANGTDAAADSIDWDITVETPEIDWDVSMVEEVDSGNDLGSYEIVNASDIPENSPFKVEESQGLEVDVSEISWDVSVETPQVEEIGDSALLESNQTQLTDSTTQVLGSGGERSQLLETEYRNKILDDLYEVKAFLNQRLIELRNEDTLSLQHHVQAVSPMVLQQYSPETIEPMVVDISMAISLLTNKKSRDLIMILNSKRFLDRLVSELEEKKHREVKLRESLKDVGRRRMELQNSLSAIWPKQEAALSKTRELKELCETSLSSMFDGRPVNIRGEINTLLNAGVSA

In test [1] the target is GST-GABARAP (human), O95166. As to the kind of experiment: SPR; qualitative; GST-GABARAP or GST-ATG8A captured; four sets of double consecutive injections of 10 µM analyte without or with 6.4 µM AIM wt or AIM mut peptide; 25°C; both purified. The settings on record: remark: other sources report otherwise. In general terms: In SPR one partner is held on a chip, and binding of the other changes the refractive index at the surface.

Test [2] addresses AtC53 (construct of Figure 9A) (Arabidopsis thaliana) (UniProt Q9FG23). In words: pull-down; E. coli lysates with recombinant proteins mixed, glutathione magnetic agarose beads, 1 h 4°C, 100 mM sodium phosphate pH 7.2, 300 mM NaCl, 1 mM DTT, 0.01% IGEPAL; immunoblot; peptides at 200 µM where added. Background: A western blot detects proteins with antibodies after separation by electrophoresis.

No constants are given. Whether binding was seen depends on the method and setting. For some assays here: In cells and extracts the contact can be indirect. Some results given as binding are weak or reduced against the parent protein; the word gives no strength. Where a sequence is shown, tags or fusion partners need not be part of it.

B1: HIS6-HsC53 ^(sAIM(W269A, W294A, W312A)), Q96JB5 1-506 (protein)
chain: MEDHQHVPIDIQTSKLLDWLVDRRHCSLKWQSLVLTIREKINAAIQDMPESEEIAQLLSGSYIHYFHCLRILDLLKGTEASTKNIFGRYSSQRMKDWQEIIALYEKDNTYLVELSSLLVRNVNYEIPSLKKQIAKCQQLQQEYSRKEEECQAGAAEMREQFYHSCKQYGITGENVRGELLALVKDLPSQLAEIGAAAQQSLGEAIDVYQASVGFVCESPTEQVLPMLRFVQKRGNSTVYEWRTGTEPSVVERPHLEELPEQVAEDAIDAGDFGVEAVSEGTDSGISAEAAGIDAGIFPESDSKDPGGDGIDAGDDAVALQITVLEAGTQAPEGVARGPDALTLLEYTETRNQFLDELMELEIFLAQRAVELSEEADVLSVSQFQLAPAILQGQTKEKMVTMVSVLEDLIGKLTSLQLQHLFMILASPRYVDRVTEFLQQKLKQSQLLALKKELMVQKQQEALEEQAALEPKLDLLLEKTKELQKLIEADISKRYSGRPVNLMGTSL
As to B1, the binding result in test [1] was “no binding (tested: 10 µM)”.

B2: MBP-ATG8A (protein, UniProt Q8LEM4 1-117)
chain: MAKSSFKISNPLEARMSESSRIREKYPDRIPVIVEKAGQSDVPDIDKKKYLVPADLTVGQFVYVVRKRIKLGAEKAIFVFVKNTLPPTAALMSAIYEEHKDEDGFLYMTYSGENTFG
As to B2, the binding result in test [2] was “binds”.
